Measured values taken from PubChem BioAssay AID1745853 (National Center for Advancing Translational Sciences (NCATS), 2022).
The other results are listed elsewhere or left out. Further columns of the screen follow, without active or inactive calls.

Columns and labels:
Test in all cases: Primary Screen for Target Class Profiling of Small Molecule Inhibitors of Methyltransferases
[1] = target: Glycine N-methyltransferase (Homo sapiens) (UniProt Q14749); settings: purified enzyme, MTase-Glo SAH luminescence; measured here: GNMT inhibition; at 40 µM; stronger effect = lower value
Summary of the method: (§1)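 Each enzyme was reacted with SAM and its substrate, with compounds tested once at 40 uM; SAH formed was read by MTase-Glo luminescence.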

[2] = target: Guanidinoacetate N-methyltransferase (Homo sapiens) (UniProt Q14353); settings: purified enzyme, MTase-Glo SAH luminescence; measured here: GAMT inhibition; at 40 µM; stronger effect = lower value
Summary of the method: as §1

[3] = target: Histamine N-methyltransferase (Homo sapiens) (UniProt P50135); settings: purified enzyme, MTase-Glo SAH luminescence; measured here: HNMT inhibition; at 40 µM; stronger effect = lower value
Summary of the method: as §1

[4] = target: Nicotinamide N-methyltransferase (Homo sapiens) (UniProt P40261); settings: purified enzyme, MTase-Glo SAH luminescence; measured here: NNMT inhibition; at 40 µM; stronger effect = lower value
Summary of the method: as §1

[5] = target: Phenylethanolamine N-methyltransferase (Homo sapiens) (UniProt P11086); settings: purified enzyme, MTase-Glo SAH luminescence; measured here: PNMT inhibition; at 40 µM; stronger effect = lower value
Summary of the method: as §1
% is set by controls: 0 for no effect and ±100 for the full control effect.

Row | Compound | activity change, negative = inhibition [1] [%] | activity change, negative = inhibition [2] [%] | activity change, negative = inhibition [3] [%] | activity change, negative = inhibition [4] [%] | activity change, negative = inhibition [5] [%]
1 | N[C@H]1CN(C(=O)c2cccc(-n3cnnc3)c2)C[C@@H]1c1ccccc1 | -3.57 | -5.77 | -6.17 | -6.3 | -4
2 | C=C1C(=O)O[C@@H]2[C@H]3C(C)=CC(=O)C3=C(C)[C@@H](OC(=O)/C(C)=C\C)[C@H](O)[C@@H]12 | 2.92 | 2.49 | 9.81 | -6.49 | 5.41
3 | O=C(O)c1cccnc1Nc1cccc(C(F)(F)F)c1 | -2.8 | 5.41 | 2.12 | -5.09 | 3.5
4 | CN1C(=O)c2cc(C(=O)NCc3ccccc3F)nn2CC1(C)C(=O)NC1CCCCC1 (stereo not given) | 4.27 | 1.6 | 1.25 | 0.898 | -1.05
5 | CCOc1ccc(N2C(=O)c3c(C(=O)OC)ncn3CC2(C)C(=O)NC2CCCCCC2)cc1 (stereo not given) | -1.49 | 3.39 | -0.573 | 11.1 | 3.64
6 | C/C=C(\C)C(=O)OC[C@H]1O[C@H](O[C@H]2O[C@H](CO)[C@@H](OC(=O)/C(C)=C/C)[C@H](O)[C@H]2O[C@@H]2O[C@H](CO)[C@@H](O)[C@H](O)[C@H]2O)[C@H](O[C@@H]2O[C@H](CO)[C@@H](O)[C@H](O)[C@H]2O)[C@@H](O)[C@@H]1O | 3.4 | 7.48 | 11.1 | -3.94 | 5.83
7 | NC(C(=O)N[C@@H]1C(=O)N2C(C(=O)O)=C(Cl)CS[C@H]12)c1ccccc1 (stereo not given in full) | -15.4 | 14.1 | 10.9 | -1.67 | 6.5
8 | CCOCCCNC(=O)N1Cc2c(sc3c2CCCC3)-n2cccc2C1c1cccc(OC)c1 (stereo not given) | -7.94 | 1.87 | 1.54 | -15.7 | -4.04
9 | CCOc1ccc(CCN2C(=O)c3ccc(-c4ccco4)n3CC2(C)C(=O)NCc2ccc(Cl)cc2)cc1 (stereo not given) | -3.21 | 4.21 | 4.44 | -4.22 | -3.92
10 | Cc1ccc(Cn2c(=O)c3ccccc3n3c(=O)n(CC(=O)Nc4cc(C)cc(C)c4)nc23)cc1 | 2.51 | 2.22 | 5.19 | -0.456 | -0.393
11 | Cc1oncc1C(=O)Nc1ccc(C(F)(F)F)cc1 | 6.07 | 9.03 | 9.3 | -8.27 | 0.689
12 | Nc1ccn(C2CO[C@H](CO)O2)c(=O)n1 (stereo not given in full) | -4.88 | -1.18 | 0.663 | -13.4 | 1.26
13 | CC(C)(O)C#Cc1ccc(C(=O)N2CCOCC2CC(=O)O)o1 (stereo not given) | -2.98 | -9.7 | -2.23 | -5.88 | -6.1
14 | c1ccc(C(OC2CCN(CCCc3nn[nH]n3)CC2)c2ccccc2)cc1 | 4.93 | -2.91 | 5.34 | -16.4 | -1.51
15 | CCc1cc2c(cc3n2CC(C)(C(=O)NC2CCCCCC2)N(c2cccc(F)c2)C3=O)s1 (stereo not given) | 0.604 | 2.8 | 3.75 | 4.72 | -0.809
16 | CC(C)CCNC(=O)C1(C)Cn2nc(C(=O)NCCCN3CCCC3)cc2C(=O)N1C (stereo not given) | 5.53 | 0 | 2.56 | 10.1 | 4.38
17 | c1ccc2c(c1)OCC(CCn1ccnc1-c1cc3n(n1)CCNC3)O2 (stereo not given) | -2.78 | -2.04 | -2.44 | -5.03 | -10.7
18 | COC(=O)NC(C)C(=O)N1Cc2cnc(Cc3ccc(OC)cc3)nc2C1 (stereo not given) | -1.93 | -0.704 | -1.03 | -0.591 | 1.94
